± gives the standard deviation of the averaged measurements. This is one part of the list.
Tested on: PfAP2-G AP2 domain (GST-tagged)
Assay: gcPBM binding intensity (ln(normalized median fluorescence intensity)); higher = stronger DNA binding
In short: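 The highest Masliner-normalised natural-log median intensity across replicate spots of either probe orientation is reported as binding intensity. GST-tagged P. falciparum DNA-binding domains expressed in E. coli were applied for 1 h to an Agilent 4 × 180k array of primer-extended double-stranded 36-bp intergenic genomic probes plus negative controls, and bound protein was detected with Alexa488 anti-GST antibody and scanned at 488 nm.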

| Sequence | gcPBM binding intensity (ln) |
| --- | --- |
| TAGAATAATCTATAAACACACAAACACAACAAAAGA [CACACA_site7861] | 10.3 ± 0.32 |
| ACCTAAAAGGTATAATATATAAATAAAAAAAAAAAT [CACACA_negctrl_site134] | 9.77 ± 0.057 |
| TATTAATCTAATTCATAAAAAATGATCTATTTTGTT [CACACA_negctrl_site1035] | 9.535 ± 0.021 |
| AAAATGAACAGACACACACACATATTTATATTTATA [CACACA_site7182] | 9.98 ± 0.17 |
| CATATACATAAACACACACACACATAAATAAATATA [CACACA_site4864] | 10.1 ± 0.33 |
| AGATATTTTATAATTACACACATGAGGTTATTTGAA [CACACA_site1999] | 9.7 ± 0.11 |
| TTATAAAAATAATATCGTACAAATGACATAGATGAA [XGTACX_site2570] | 10.9 ± 0.47 |
| CAGCTCTTAAAAATTACACACATATACTCATATATA [CACACA_site5757] | 9.96 ± 0.15 |
| GAAAAGCAGATAAATGTGCACATATATGTTTGTATA | 10.26 ± 0.099 |
| TATAGGTATATATAAGTGCAATATATATGTATATAC [GTGCAC_site9427] | 10.1 ± 0.16 |
| TATTATTTTTTAAATTGTACAATAAATTATAAAAGG [XGTACX_site1162] | 11 ± 0.6 |
| ACATAAAATTGTTAAAAAATTGTATAAATAATACAT [XGTACX_negctrl_site557] | 9.85 ± 0.085 |
| GTATATATTCATATGGAAAATAAAGGAGAAAACAAG [TGCATGCA_negctrl_site220] | 10.4 ± 0.2 |
| ATGTATGTATAATATACACACTCACAAGCATTCAAA [CACACA_site4306] | 10.05 ± 0.071 |
| TTTGTTTTTTCTTTTTGTACATATACAAGATACGTA [XGTACX_site2309] | 11 ± 0.58 |
| TTTTGTAATTCTCTTCATATAATTTATATATATATA [CACACA_negctrl_site1825] | 9.98 ± 0.35 |
| GTGTTTTTTTTAGATTGTACATATATATATATATAT [XGTACX_site4562] | 11.1 ± 0.7 |
| ACCCAACATATGTGTACACAGAAAATAAATATAATA [CACACA_site5901] | 11.6 ± 0.94 |
| TAAACAACTTATAAATGTACACATATTTTAATTACC [XGTACX_site5409] | 11.5 ± 0.8 |
| ATATATATACATACATACCTATGTATATGTGTAATT [GTGCAC_negctrl_site50] | 9.73 ± 0.13 |
| ATGGTAGTGATTAAAAGTACACGTAATTGTAAAAAT [XGTACX_site387] | 11.7 ± 0.79 |
| TCATAGTCTTAATGACTACACACCTAACTATGCATG [CACACA_site1839] | 9.93 ± 0.042 |
| AATAAAAACTAAACATGTACGCACATATATATATAT [XGTACX_site8096] | 11.5 ± 0.97 |

| Sequence | gcPBM binding intensity (ln) |
| --- | --- |
| TAAGTGCATGAGATATGTACATATATAAAATATATA [XGTACX_site3294] | 11.1 ± 0.67 |
| TAAAAAAAAAAAAATACACACACACCGATATATATA [CACACA_site8498] | 9.86 ± 0.11 |
| ATTTGTTACACTAAATGTACATACATACATATATAT [XGTACX_site6175] | 11 ± 0.57 |
| TTATAAATTATAGGTACACACAAAAAAAAAAAGAAA [CACACA_site1327] | 11.4 ± 0.91 |
| AAACCACAAAATTTTTTATATATGACCAATACATAG [CACACA_negctrl_site277] | 10.7 ± 0.38 |
| ATTTATCAATAAAATGCACACACTGTAATATTATTA [CACACA_site3976] | 10.03 ± 0.071 |
| TTATAATAGTTAAATGTACACACTAACTACATGGAA [CACACA_site9070] | 11.5 ± 1 |
| ATAAACATATCAATATGTACATATTTTTGTTTGTAT [XGTACX_site7018] | 11.2 ± 0.7 |
| TTCCATATAATTACATGTACACATTTTGAATAATAT [XGTACX_site3692] | 11.6 ± 1 |
| AGCACAGACGGACACACACACATATATATATATATA [CACACA_site4341] | 11.4 ± 0.93 |
| ATATATATGTATGTATGTACATATTTGAATTTATTT [XGTACX_site8470] | 11.3 ± 0.83 |
| ACAGATATACATAAAAAAAAAATAATTTTACATATA [CACACA_negctrl_site929] | 9.765 ± 0.049 |
| GTGATTTAATTGTGTTGTACATATTTATAAATAAAA [XGTACX_site8966] | 11.4 ± 0.73 |
| AAAAAAAAAAGAAACACACACATTTGTATTTAATAT [CACACA_site5184] | 9.73 ± 0.2 |
| CCCTTTTCTAAATATTGTACGTATAAATTATATTAC [XGTACX_site7676] | 11.7 ± 0.88 |
| TTATTATTATATGAATGTACTTAAAAATACATTTTG [XGTACX_site2959] | 11 ± 0.71 |
| ATTCTATATACACGCACACACACTTATATATATATA [CACACA_site3322] | 10.5 ± 0.36 |
| TATGTGCCAAGACACACACACATATTTATATTTATA [CACACA_site6360] | 10.1 ± 0.18 |
| TATGAAAAATATCTTTGTACTTAGAAATATATACAC [XGTACX_site5393] | 11.1 ± 0.79 |
| GTACAGATAAATATTACACACATTTTCATTTTTAAC [CACACA_site5140] | 10.9 ± 0.54 |
| TTGTTCTTTTTTTTTTTATTTTTTAATTTGAAAAGA [CACACA_negctrl_site209] | 10.1 ± 0.38 |
| AAAAAGAAAAAACGAAGTACAATTATAAGATTATAT [XGTACX_site410] | 11.3 ± 0.86 |

Reference: the supplement of paper PMC11417369
